According to the BET-seq Pho4 binding data (Le et al. 2018):
The other results are listed elsewhere or left out. Values were computed here from the reads of four pooled replicates and scatter widely.

Biological target: T1, Pho4 (S. cerevisiae) (UniProt P07270)
T1 sequence: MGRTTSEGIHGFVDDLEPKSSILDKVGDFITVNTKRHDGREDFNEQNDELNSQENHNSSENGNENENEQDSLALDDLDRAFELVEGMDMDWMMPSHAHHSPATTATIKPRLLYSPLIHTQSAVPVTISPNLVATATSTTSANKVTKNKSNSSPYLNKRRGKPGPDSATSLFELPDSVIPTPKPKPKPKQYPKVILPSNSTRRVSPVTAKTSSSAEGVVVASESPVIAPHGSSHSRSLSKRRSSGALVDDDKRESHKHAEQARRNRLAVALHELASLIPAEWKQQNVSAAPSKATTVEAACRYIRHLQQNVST
Experiment: relative binding free energy (BET-seq); higher = weaker binding
Conditions: reference: library average

Relative binding free energy, -0.27 kcal/mol:
TCTTGCACGTGGTATT

Relative binding free energy, 0.37 kcal/mol:
CGGTTCACGTGAGTGT

Relative binding free energy, 0.36 kcal/mol:
GAACTCACGTGGTGGA

Relative binding free energy, 0.28 kcal/mol:
AATAGCACGTGAATGT
TGCTTCACGTGATGAG

Relative binding free energy, 0.07 kcal/mol:
GAAGGCACGTGACGGG
TTTTCCACGTGTGTGA
TAAAGCACGTGTGTTA
TTTGTCACGTGGACTG
ATTGACACGTGTTAGA
TTAAGCACGTGTGAAA
TTTTGCACGTGTCGAG

Relative binding free energy, 0.01 kcal/mol:
ATAGTCACGTGGGAAA
AAAGGCACGTGCGGAA
TTTTGCACGTGCAGGT
TTATGCACGTGTCGTT

Relative binding free energy, -0.23 kcal/mol:
TTCTGCACGTGGGCTT

Relative binding free energy, -0.17 kcal/mol:
TGCAGCACGTGTTTAG
GATTGCACGTGGGCTG
AGAGGCACGTGTGTGC

Relative binding free energy, 0.09 kcal/mol:
AGTGACACGTGTGAGT
GGAGGCACGTGTGATT
AGTTGCACGTGATGAT

Relative binding free energy, -0.19 kcal/mol:
TTACGCACGTGTTCGG
ATGGGCACGTGCGGCA

Relative binding free energy, -0.22 kcal/mol:
GATGGCACGTGGGCTT
TAGTGCACGTGGGCAA

Relative binding free energy, 0.29 kcal/mol:
GTTTTCACGTGTGGTT

Relative binding free energy, -0.11 kcal/mol:
TGGCGCACGTGTATGG
TGGAACACGTGGTAGA

Relative binding free energy, 0.02 kcal/mol:
AGTATCACGTGGTCTT
ATTGGCACGTGTGACT
AGTCGCACGTGGATGT

Relative binding free energy, -0.26 kcal/mol:
CGCTGCACGTGGGTAG

Relative binding free energy, 0.17 kcal/mol:
TTAAACACGTGATGAT
GGAGACACGTGCGTTT
GGGATCACGTGGGATC
ATGTTCACGTGGCGGT

Relative binding free energy, -0.07 kcal/mol:
AGGGACACGTGGGGTC
TGGTGCACGTGTATGC
TTGGGCACGTGGTAAA

Relative binding free energy, 0.21 kcal/mol:
GATCTCACGTGGGAGT
TCTGTCACGTGAGCGG
AGGAGCACGTGAAGTG
GTAGTCACGTGATGTC

Relative binding free energy, -0.01 kcal/mol:
TTTCGCACGTGTACGT
CTGGTCACGTGGGCCT
AATAGCACGTGTCTTT
TGTCGCACGTGATGGA
AGGTGCACGTGTTAAT

Relative binding free energy, -0.06 kcal/mol:
TGGGCCACGTGCTGTT
TTAACCACGTGGTAGT
GTAAGCACGTGTGCGG
TTGGGCACGTGCTTAT
TGGTGCACGTGGGGGG
TGTTCCACGTGGGGAA
GGGGCCACGTGGTAAT
CGTGACACGTGGTTAG

Relative binding free energy, 0.3 kcal/mol:
AGGTGCACGTGAACTT
TTGTTCACGTGTTCAA
GAATTCACGTGTTATT

Relative binding free energy, 0.12 kcal/mol:
ATCAGCACGTGATGGT
TTCCACACGTGGTTTT
GTGTGCACGTGACTGA
GTTAACACGTGGTGTC
TTATTCACGTGGTCGT

Relative binding free energy, -0.12 kcal/mol:
TTTGACACGTGGGAGA
GAAGGCACGTGGTTGT
ATCTACACGTGGGGTT

Relative binding free energy, 0.1 kcal/mol:
GGGAGCACGTGATGTG
GATTGCACGTGGACGG
TGTTACACGTGTGTAA

Relative binding free energy, 0 kcal/mol:
GCAGGCACGTGTGAGG
TCGGTCACGTGGGAAG
CTAGTCACGTGTGCGT
ATGAACACGTGTTATT
CTGCTCACGTGGTGTG
AGTAACACGTGTTTGA

Relative binding free energy, 0.25 kcal/mol:
GTAATCACGTGCATTT

Relative binding free energy, -0.02 kcal/mol:
TTAGCCACGTGTTATT
CTCGGCACGTGGGAGA
AGGGTCACGTGTACAG

Relative binding free energy, 0.23 kcal/mol:
AGATTCACGTGGTTTT
ATGATCACGTGGAAGA
TACTACACGTGTGGAG
TTCTTCACGTGTATGA

Relative binding free energy, -0.14 kcal/mol:
CTTAGCACGTGTGTAT
ATTAGCACGTGGCCGG
TTTTGCACGTGGGTGC

Relative binding free energy, 0.39 kcal/mol:
GAGGTCACGTGTGGTC

Relative binding free energy, -0.16 kcal/mol:
ACTAGCACGTGGTTGG

Relative binding free energy, -0.13 kcal/mol:
TAGAGCACGTGGCGTT
AGTGACACGTGCGGGG
TTATGCACGTGCGTGG
TCAGTCACGTGGTTAG

Relative binding free energy, 0.27 kcal/mol:
GGTCTCACGTGGCTGT
TTAATCACGTGACTTG
GTGTTCACGTGTTCGT

Relative binding free energy, 0.2 kcal/mol:
GGTAACACGTGAGTGT
TGATTCACGTGTGTAA

Relative binding free energy, 0.14 kcal/mol:
TGTTTCACGTGCTATT
GCAGGCACGTGAGTTT
AGTTTCACGTGGGCGC
CAAGGCACGTGTAGCG
CGTTTCACGTGGGTAC
ATGGTCACGTGTTTGT
GGTTGCACGTGATGAA
TCGGTCACGTGGCAGT
TCATTCACGTGCGTGT

Relative binding free energy, 0.26 kcal/mol:
GTTTTCACGTGATTCT
TACTTCACGTGAAGTG

Relative binding free energy, 0.03 kcal/mol:
TACTGCACGTGTTTGG
TGTTACACGTGCATTG
CATAGCACGTGGAGTT
GTGAGCACGTGTGAGC
ATATACACGTGTGGTT
TGGGTCACGTGGGCGC

Relative binding free energy, 0.38 kcal/mol:
GATTACACGTGATTTA
TCTTTCACGTGAAGGG

Relative binding free energy, 0.34 kcal/mol:
TGTCTCACGTGGAAAT
TTATTCACGTGCATTT

Relative binding free energy, -0.43 kcal/mol:
ACGAGCACGTGGGGGG

Relative binding free energy, -0.08 kcal/mol:
CTAGGCACGTGGTGGT
GTGTGCACGTGGGTTG
TGTGGCACGTGGAACG
TAATCCACGTGGTAGT
TAAGGCACGTGATTAA
ATGTACACGTGGGCGG

Relative binding free energy, -0.15 kcal/mol:
GGTTGCACGTGGGCTA
GCGTGCACGTGGGCAG
ATGCGCACGTGGATGG

Relative binding free energy, 0.13 kcal/mol:
GGCTACACGTGGGTCT
AGTGTCACGTGGCGTG
GGTGTCACGTGGAACG
TTAGTCACGTGTGGCG
TTAGTCACGTGTAAAG

Relative binding free energy, 0.05 kcal/mol:
CGTTACACGTGTTCGG
AATGTCACGTGGCTGT
GCGTGCACGTGTAAGT
AGAGGCACGTGGAAAT
TGTGGCACGTGAGACG
GGTTGCACGTGTTAAG

Relative binding free energy, 0.08 kcal/mol:
TGTGTCACGTGGTATT
ATGAACACGTGTTGGA
GTGTGCACGTGTCTTG
TCGTGCACGTGATTTG

Relative binding free energy, -0.03 kcal/mol:
GTATGCACGTGTAGGG
AGGTACACGTGGGATA
TGAGCCACGTGTTCGG
TAGTACACGTGCTTTG
CTGTACACGTGTATTG
ATTTACACGTGCAGTT

Relative binding free energy, 0.06 kcal/mol:
TAATGCACGTGTATGG
GTCAACACGTGTGGGA
TCTATCACGTGGTTAT
GTGGGCACGTGAGTAA

Relative binding free energy, 0.18 kcal/mol:
AAGGACACGTGTCGGG
TTTTCCACGTGATTTT
TTTATCACGTGCAATT
TAAGGCACGTGAGTTT

Relative binding free energy, -0.09 kcal/mol:
TTGATCACGTGGGTTC
GTAGGCACGTGTCGAG

Relative binding free energy, 0.04 kcal/mol:
TGGGTCACGTGGGCCA
TGTTGCACGTGAGCTA
TTTTGCACGTGATGCT
GTTTACACGTGGTTAA
ATTTGCACGTGTGTAG
GGTAGCACGTGTGAGT
AGAATCACGTGGAGTG

Relative binding free energy, -0.1 kcal/mol:
GAATGCACGTGGTGCT
GAGGGCACGTGGTCGA
GATAGCACGTGGGCGA
ATGCGCACGTGTATAG
ATATACACGTGGGGTG
GGGTGCACGTGCGGCG

Relative binding free energy, -0.05 kcal/mol:
AGAGTCACGTGGGAGC
GGGGGCACGTGGTAAT
TTGTACACGTGGAGGT
GGAGGCACGTGTAGAG
TCGGACACGTGGGTTT
TAGTACACGTGGGGGA
GTCGGCACGTGCTGAG

Relative binding free energy, -0.18 kcal/mol:
TGAGGCACGTGGTGTC
GGTGCCACGTGGGCGC

Relative binding free energy, -0.04 kcal/mol:
CGCGTCACGTGGGAGT
TAGTACACGTGTCGGT
AATTACACGTGGAGGG
AGTGCCACGTGTGGGA
GGTTGCACGTGGCGAT
TGGCGCACGTGCGTTT
AGTAGCACGTGTAAGT
ATGGGCACGTGATAGC

Relative binding free energy, 0.43 kcal/mol:
GTTTTCACGTGACAAG
AATTTCACGTGAACGG
AGTTTCACGTGAAATT

Relative binding free energy, 0.24 kcal/mol:
TGTTACACGTGAAGGT
ATGTTCACGTGGGTTT
TGCAGCACGTGAGAGT
TAGGTCACGTGATGGC
AAGGTCACGTGTCAGT
AATAGCACGTGTAGAT
TCCTTCACGTGGTATG
GTTGCCACGTGAAGGG

Relative binding free energy, 0.11 kcal/mol:
ATCATCACGTGCGTGG
GGTGGCACGTGTGAGA
GGCGTCACGTGTCGGT
GATGACACGTGAGTGG
TTTGGCACGTGAACGA
TCTGTCACGTGTATCG
CGTGGCACGTGAAAAG

Relative binding free energy, -0.21 kcal/mol:
TGGCGCACGTGGGTTG

Relative binding free energy, 0.4 kcal/mol:
GTTGTCACGTGAACAT

Relative binding free energy, 0.19 kcal/mol:
TCATGCACGTGTAATG
ATTTTCACGTGATTCT
ATTTTCACGTGGTATC
ATAATCACGTGAAGTT

Relative binding free energy, 0.22 kcal/mol:
GTATACACGTGTAATT
ATAATCACGTGGTAGA
AAGTACACGTGGAAGG
GTTGTCACGTGTAATT
TGGATCACGTGCATAT

Relative binding free energy, 0.15 kcal/mol:
GCTTGCACGTGTGTAG
CGGTACACGTGTCTGT
GGGCACACGTGGTGAG
GGTATCACGTGGCTTG
GTGGTCACGTGGCTTA
ATTTACACGTGTGTCT
AAAGTCACGTGTTGAA

Relative binding free energy, -0.2 kcal/mol:
CCGTGCACGTGGTGGG
GTTGCCACGTGGGTAG
